Lines with a small IC50 respond at low doses; fits outside the tested doses are given as limits. AUC is the area under the same curve over the 256-fold range up to the top dose, as a fraction: 1 means no effect, lower means more sensitive. For some of these results: A top dose marked as inferred was derived from the fitted curves, not read from the paper. For some of these results: Where an entry number is given, a second screen of the drug exists; the two often differ.
Legend:
Assay in all cases: Viability of human cancer cell lines after 72 h of drug (GDSC screen)
[1] = compound: CC/C(=C(\c1ccccc1)c1ccc(OCCN(C)C)cc1)c1ccccc1 [Tamoxifen]; details: top dose 5 µM
Method: (§1)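 Human cancer cell lines in 384-well plates, medium with 10% serum, drug for 72 h over a 256-fold dose range (nine 2-fold or five 4-fold steps up to the top dose). Adherent lines were fixed and stained with the nucleic acid dye Syto60, suspension lines read with resazurin; signal relative to control wells, capped at 0 and 100%. One two-parameter sigmoid per drug and line, fitted in a mixed model over all curves with the slope shared within a line.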

[2] = compound: CCCC(=O)OCc1ccc(OC(=O)/C=C(C)/C=C/C=C(C)/C=C/C2=C(C)CCCC2(C)C)cc1 [VNLG/124]; details: top dose 5.12 µM; top dose inferred
Method: as §1

[3] = compound: CN(NC(=O)CC(=O)NN(C)C(=S)c1ccccc1)C(=S)c1ccccc1 [Elesclomol]; details: top dose 0.2 µM; top dose inferred
Method: as §1

[4] = compound: Cc1c(N)nc([C@H](CC(N)=O)NC[C@H](N)C(N)=O)nc1C(=O)N[C@H](C(=O)N[C@H](C)[C@@H](O)[C@H](C)C(=O)N[C@H](C(=O)NCCc1nc(-c2nc(C(=O)NCCC[S+](C)C)cs2)cs1)[C@@H](C)O)[C@@H](OC1OC(CO)C(O)C(O)C1OC1OC(CO)C(O)C(OC(N)=O)C1O)c1cnc[nH]1 [Bleomycin]
Method: as §1

[5] = compound: Cc1ccc(NC(=O)c2ccc(CN3CCN(C)CC3)cc2)cc1Nc1nc(-c2cccnc2)cs1 [Masitinib]; details: top dose 20 µM
Method: as §1

[6] = compound: O=C(/C=C/c1ccc(CN(CCO)CCc2c[nH]c3ccccc23)cc1)NO [LAQ824]; details: top dose 1.024 µM; top dose inferred
Method: as §1

[7] = compound: O=C(Nc1ccc(OC(F)(F)F)cc1)c1sccc1NCc1ccnc2ccccc12 [OSI-930]; details: top dose 10.24 µM
Method: as §1

[8] = compound: O=C(Nc1cccc(Nc2ncc(Br)c(NCCc3cnc[nH]3)n2)c1)N1CCCC1 [BX-912]; details: top dose 10.24 µM; top dose inferred
Method: as §1

[9] = compound: O=S(=O)(O)c1ccc2cc(N=Nc3cc(S(=O)(=O)O)c4cccnc4c3O)ccc2c1 [NSC-87877]; details: top dose 16 µM; top dose inferred
Method: as §1

[10] = top dose 50 µM, screen: GDSC drug entry 1378, top dose inferred
[11] = top dose 64 µM, screen: GDSC drug entry 190

Cell Line | AUC [1] | IC50 [1] [µM] | AUC [2] | IC50 [2] [µM] | AUC [3] | IC50 [3] [µM] | AUC [4, 10] | IC50 [4, 10] [µM] | AUC [4, 11] | IC50 [4, 11] [µM] | AUC [5] | IC50 [5] [µM] | AUC [6] | IC50 [6] [µM] | AUC [7] | IC50 [7] [µM] | AUC [8] | IC50 [8] [µM] | AUC [9] | IC50 [9] [µM]
CP66-MEL (melanoma, adherent) | 0.982 | > 5 | 0.979 | > 5.12 | 0.754 | 0.076 | 0.852 | 47.4 | 0.952 | > 64 | 0.964 | > 20 | 0.511 | 0.0687 | 0.962 | > 10.2 | 0.984 | > 10.2 | 0.973 | > 16
CPC-N (small cell lung carcinoma, suspension) | 0.926 | > 5 | 0.985 | > 5.12 | 0.961 | > 0.2 | 0.897 | > 50 | 0.837 | 48.5 | 0.922 | > 20 | 0.424 | 0.0389 | 0.974 | > 10.2 | 0.862 | 10.1 | 0.978 | > 16
CTB-1 (B-cell lymphoma, suspension) | 0.912 | > 5 | 0.917 | > 5.12 | 0.542 | 0.017 | 0.825 | 45.7 | 0.128 | < 0.25 | 0.845 | > 20 | 0.353 | 0.0215 | 0.967 | > 10.2 | 0.83 | 9.91 | 0.959 | > 16
CTV-1 (acute myeloid leukaemia, suspension) | 0.985 | > 5 | 0.985 | > 5.12 | 0.563 | 0.0179 | 0.581 | 4.98 | 0.538 | 4.97 | 0.645 | 2.88 | 0.339 | 0.0252 | 0.833 | 4.88 | 0.718 | 2.29 | 0.984 | > 16
Ca9-22 (head and neck, adherent) | 0.975 | > 5 | 0.987 | > 5.12 | 0.332 | 0.00444 | 0.196 | 0.427 | 0.282 | 1.02 | 0.973 | > 20 | 0.295 | 0.0178 | 0.979 | > 10.2 | 0.965 | > 10.2 | 0.98 | > 16
Calu-6 (lung adenocarcinoma, adherent) | 0.981 | > 5 | 0.984 | > 5.12 | 0.934 | > 0.2 | 0.616 | 6.87 | 0.586 | 7.15 | 0.899 | > 20 | 0.383 | 0.0289 | 0.859 | > 10.2 | 0.916 | > 10.2 | 0.977 | > 16
D-283MED (medulloblastoma, adherent) | 0.988 | > 5 | 0.988 | > 5.12 | 0.688 | 0.0399 | 0.586 | 5.25 | 0.511 | 4.28 | 0.984 | > 20 | 0.493 | 0.0615 | 0.975 | > 10.2 | 0.989 | > 10.2 | 0.991 | > 16
D-502MG (glioma, adherent) | 0.967 | > 5 | 0.956 | > 5.12 | 0.59 | 0.0252 | 0.551 | 4.64 | 0.963 | > 64 | 0.967 | > 20 | 0.774 | 0.654 | 0.967 | > 10.2 | 0.901 | > 10.2 | 0.978 | > 16
DAN-G (pancreas, adherent) | 0.991 | > 5 | 0.985 | > 5.12 | 0.56 | 0.0178 | 0.307 | 0.976 | 0.953 | > 64 | 0.932 | > 20 | 0.596 | 0.113 | 0.969 | > 10.2 | 0.964 | > 10.2 | 0.992 | > 16
DB (B-cell lymphoma, suspension) | 0.965 | > 5 | 0.973 | > 5.12 | 0.882 | > 0.2 | 0.876 | > 50 | 0.562 | 6.05 | 0.824 | 13.9 | 0.331 | 0.0203 | 0.953 | > 10.2 | 0.873 | > 10.2 | 0.976 | > 16
DEL (lymphoid neoplasm, suspension) | 0.977 | > 5 | 0.994 | > 5.12 | 0.955 | > 0.2 | 0.813 | 20.1 | 0.194 | 0.65 | 0.539 | 1.56 | 0.345 | 0.0263 | 0.888 | 7.33 | 0.844 | 5.17 | 0.988 | > 16
DK-MG (glioma, adherent) | 0.975 | > 5 | 0.978 | > 5.12 | 0.556 | 0.0191 | 0.567 | 5.19 | 0.866 | > 64 | 0.739 | 8.62 | 0.791 | 0.74 | 0.774 | 6.18 | 0.605 | 1.43 | 0.966 | > 16
DMS-79 (small cell lung carcinoma, suspension) | 0.98 | > 5 | 0.987 | > 5.12 | 0.967 | > 0.2 | 0.879 | > 50 | 0.936 | > 64 | 0.958 | > 20 | 0.576 | 0.107 | 0.965 | > 10.2 | 0.949 | > 10.2 | 0.987 | > 16
DSH1 (bladder, adherent) | 0.988 | > 5 | 0.971 | > 5.12 | 0.624 | 0.027 | 0.845 | 33.7 | 0.903 | > 64 | 0.935 | > 20 | 0.419 | 0.0388 | 0.98 | > 10.2 | 0.924 | > 10.2 | 0.985 | > 16
Daoy (medulloblastoma, adherent) | 0.988 | > 5 | 0.987 | > 5.12 | 0.578 | 0.02 | 0.247 | 0.639 | 0.109 | 0.255 | 0.887 | 18.7 | 0.254 | 0.0137 | 0.916 | > 10.2 | 0.92 | > 10.2 | 0.975 | > 16
Detroit562 (head and neck, adherent) | 0.93 | > 5 | 0.982 | > 5.12 | 0.696 | 0.0433 | 0.562 | 4.57 | 0.643 | 9.78 | 0.939 | > 20 | 0.522 | 0.0733 | 0.979 | > 10.2 | 0.967 | > 10.2 | 0.986 | > 16
EB2 (Burkitt lymphoma, suspension) | 0.988 | > 5 | 0.954 | > 5.12 | 0.869 | 0.156 | 0.398 | 1.68 | 0.24 | 0.778 | 0.547 | 1.66 | 0.39 | 0.0328 | 0.728 | 2.64 | 0.503 | 0.652 | 0.989 | > 16
EB-3 (Burkitt lymphoma, suspension) | 0.946 | > 5 | 0.797 | 2.87 | 0.94 | > 0.2 | 0.924 | > 50 | 0.731 | 20.5 | 0.839 | 17 | 0.602 | 0.128 | 0.945 | > 10.2 | 0.79 | 5.39 | 0.984 | > 16
EBC-1 (lung squamous cell carcinoma, adherent) | 0.913 | > 5 | 0.978 | > 5.12 | 0.644 | 0.033 | 0.776 | 22.5 | 0.439 | 2.67 | 0.898 | > 20 | 0.306 | 0.0169 | 0.952 | > 10.2 | 0.886 | > 10.2 | 0.976 | > 16
ECC10 (stomach, suspension) | 0.956 | > 5 | 0.961 | > 5.12 | 0.496 | 0.0122 | 0.877 | > 50 | 0.523 | 4.62 | 0.868 | 19.6 | 0.334 | 0.0216 | 0.968 | > 10.2 | 0.78 | 4.41 | 0.97 | > 16
EFM-19 (breast, adherent) | 0.93 | > 5 | 0.973 | > 5.12 | 0.702 | 0.0631 | 0.882 | > 50 | 0.139 | < 0.25 | 0.89 | > 20 | 0.406 | 0.031 | 0.976 | > 10.2 | 0.889 | > 10.2 | 0.973 | > 16
EFO-21 (ovary, adherent) | 0.963 | > 5 | 0.968 | > 5.12 | 0.806 | 0.161 | 0.885 | > 50 | 0.496 | 3.89 | 0.956 | > 20 | 0.519 | 0.0739 | 0.971 | > 10.2 | 0.848 | > 10.2 | 0.977 | > 16
EFO-27 (ovary, adherent) | 0.928 | > 5 | 0.978 | > 5.12 | 0.436 | 0.008 | 0.678 | 11.2 | 0.351 | 1.38 | 0.879 | > 20 | 0.306 | 0.0158 | 0.978 | > 10.2 | 0.963 | > 10.2 | 0.976 | > 16
EGI-1 (biliary tract, adherent) | 0.98 | > 5 | 0.978 | > 5.12 | 0.462 | 0.00952 | 0.726 | 17 | 0.338 | 1.23 | 0.942 | > 20 | 0.515 | 0.0711 | 0.971 | > 10.2 | 0.954 | > 10.2 | 0.94 | > 16
EJM (lymphoid neoplasm, semi-adherent) | 0.992 | > 5 | 0.967 | > 5.12 | 0.461 | 0.00997 | 0.946 | > 50 | 0.961 | > 64 | 0.893 | 17.2 | 0.413 | 0.0386 | 0.962 | > 10.2 | 0.908 | > 10.2 | 0.982 | > 16
EM-2 (chronic myeloid leukaemia, suspension) | 0.919 | > 5 | 0.918 | > 5.12 | 0.915 | > 0.2 | 0.88 | > 50 | 0.874 | > 64 | 0.293 | 0.3 | 0.58 | 0.109 | 0.868 | > 10.2 | 0.712 | 2.78 | 0.981 | > 16
